Test results published in PMC9911399, “Two distinct binding modes provide the RNA-binding protein RbFox with extraordinary sequence specificity”.
Residue numbers refer to the chain shown, from its start. This is one part of the list.

T1: RBFOX1 RRM RbFoxmut (Fox-RRM*) (Homo sapiens, UniProt Q9NWB1 109-208, R118D;E147R;N151S;E152T)
T1 sequence: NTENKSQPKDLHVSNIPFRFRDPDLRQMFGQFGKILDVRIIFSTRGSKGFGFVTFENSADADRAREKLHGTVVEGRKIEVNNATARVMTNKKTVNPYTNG

B1: AACGUCA (DNA:RNA)
RNA: GGGAGACCGGAAUUCAGAUUGUCCAACGUCAUUAAAUCCCGUCGUAGCCACCA
DNA 1: CAATCTGAATTCCGGTCTCCC
DNA 2: TGGTGGCTACGACGGGATT
B2: UUAGGGG (DNA:RNA)
RNA: B1 RNA with A25U, A26U, C27A, U29G, C30G, A31G
DNA 1: CAATCTGAATTCCGGTCTCCC
DNA 2: TGGTGGCTACGACGGGATT
B3: GGAUUAC (DNA:RNA)
RNA: B1 RNA with A25G, A26G, C27A, G28U, C30A, A31C
DNA 1: CAATCTGAATTCCGGTCTCCC
DNA 2: TGGTGGCTACGACGGGATT
B4: AGCUUGC (DNA:RNA)
RNA: B1 RNA with A26G, G28U, C30G, A31C
DNA 1: CAATCTGAATTCCGGTCTCCC
DNA 2: TGGTGGCTACGACGGGATT
B5: UGUUGUG (DNA:RNA)
RNA: GGGAGACCGGAAUUCAGAUUGUCCUGUUGUGUUAAAUCCCGUCGUAGCCACCA
DNA 1: CAATCTGAATTCCGGTCTCCC
DNA 2: TGGTGGCTACGACGGGATT
B6: UCCCUGG (DNA:RNA)
RNA: B1 RNA with A25U, A26C, G28C, C30G, A31G
DNA 1: CAATCTGAATTCCGGTCTCCC
DNA 2: TGGTGGCTACGACGGGATT
B7: AUAAAUA (DNA:RNA)
RNA: B1 RNA with A26U, C27A, G28A, U29A, C30U
DNA 1: CAATCTGAATTCCGGTCTCCC
DNA 2: TGGTGGCTACGACGGGATT
B8: AUCGUCC (DNA:RNA)
RNA: B1 RNA with A26U, A31C
DNA 1: CAATCTGAATTCCGGTCTCCC
DNA 2: TGGTGGCTACGACGGGATT
B9: CACGUAU (DNA:RNA)
RNA: B1 RNA with A25C, C30A, A31U
DNA 1: CAATCTGAATTCCGGTCTCCC
DNA 2: TGGTGGCTACGACGGGATT
B10: UACCUCU (DNA:RNA)
RNA: B1 RNA with A25U, G28C, A31U
DNA 1: CAATCTGAATTCCGGTCTCCC
DNA 2: TGGTGGCTACGACGGGATT
B11: ACACGAC (DNA:RNA)
RNA: B1 RNA with A26C, C27A, G28C, U29G, C30A, A31C
DNA 1: CAATCTGAATTCCGGTCTCCC
DNA 2: TGGTGGCTACGACGGGATT
B12: GAGUCCG (DNA:RNA)
RNA: B1 RNA with A25G, C27G, G28U, U29C, A31G
DNA 1: CAATCTGAATTCCGGTCTCCC
DNA 2: TGGTGGCTACGACGGGATT
B13: GAGGCGU (DNA:RNA)
RNA: B1 RNA with A25G, C27G, U29C, C30G, A31U
DNA 1: CAATCTGAATTCCGGTCTCCC
DNA 2: TGGTGGCTACGACGGGATT
B14: GAAGAGA (DNA:RNA)
RNA: B1 RNA with A25G, C27A, U29A, C30G
DNA 1: CAATCTGAATTCCGGTCTCCC
DNA 2: TGGTGGCTACGACGGGATT
B15: CCGUAUG (DNA:RNA)
RNA: B5 RNA with U25C, G26C, U27G, G29A
DNA 1: CAATCTGAATTCCGGTCTCCC
DNA 2: TGGTGGCTACGACGGGATT
B16: AGCACCA (DNA:RNA)
RNA: B1 RNA with A26G, G28A, U29C
DNA 1: CAATCTGAATTCCGGTCTCCC
DNA 2: TGGTGGCTACGACGGGATT
B17: GCCGGCA (DNA:RNA)
RNA: B1 RNA with A25G, A26C, U29G
DNA 1: CAATCTGAATTCCGGTCTCCC
DNA 2: TGGTGGCTACGACGGGATT
B18: UAGAAAU (DNA:RNA)
RNA: B1 RNA with A25U, C27G, G28A, U29A, C30A, A31U
DNA 1: CAATCTGAATTCCGGTCTCCC
DNA 2: TGGTGGCTACGACGGGATT
B19: AUGACAA (DNA:RNA)
RNA: B1 RNA with A26U, C27G, G28A, U29C, C30A
DNA 1: CAATCTGAATTCCGGTCTCCC
DNA 2: TGGTGGCTACGACGGGATT
B20: AACACCC (DNA:RNA)
RNA: B1 RNA with G28A, U29C, A31C
DNA 1: CAATCTGAATTCCGGTCTCCC
DNA 2: TGGTGGCTACGACGGGATT

Biological target: T1, RBFOX1 RRM RbFoxmut (Fox-RRM*)
Experiment: EMSA; HiTS-Eq, 1 nM pool, 10 min; buffer printed only for the single-RNA assays: 10 mM Tris pH 7.5, 150 mM NaCl, 3.4 mM EDTA, 0.001% NP-40, 30 C
Conditions: tags: His6 N-terminal (pET28a); label: 5' 32P
Outline: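 Relative association constants, normalised to the cognate motif, were derived by comparing read counts of each RNA species with those of the control reaction. The RNA sequenced was the free fraction, separated by 8% native PAGE after a 10 min equilibration in 50 µL of 1 nM 5′-radiolabelled RNA (7 randomized nucleotides) with increasing concentrations of purified wild-type or mutant RbFox RRM.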

| Binder | binding signal |
| --- | --- |
| B1 | 0.0754 KA relative to UGCAUGU |
| B2 | 0.0458 KA relative to UGCAUGU |
| B3 | 0.0859 KA relative to UGCAUGU |
| B4 | 0.14 KA relative to UGCAUGU |
| B5 | 0.29 KA relative to UGCAUGU |
| B6 | 0.101 KA relative to UGCAUGU |
| B7 | 0.119 KA relative to UGCAUGU |
| B8 | 0.0736 KA relative to UGCAUGU |
| B9 | 0.108 KA relative to UGCAUGU |
| B10 | 0.0588 KA relative to UGCAUGU |
| B11 | 0.0842 KA relative to UGCAUGU |
| B12 | 0.117 KA relative to UGCAUGU |
| B13 | 0.123 KA relative to UGCAUGU |
| B14 | 0.0591 KA relative to UGCAUGU |
| B15 | 0.534 KA relative to UGCAUGU |
| B16 | 0.0752 KA relative to UGCAUGU |
| B17 | 0.143 KA relative to UGCAUGU |
| B18 | 0.0712 KA relative to UGCAUGU |
| B19 | 0.0537 KA relative to UGCAUGU |
| B20 | 0.0374 KA relative to UGCAUGU |
